Results taken from PubChem BioAssay AID1240 (Sanford-Burnham Center for Chemical Genomics, 2008).
Among all 50,000 compounds or so, about 800 (1.6%) showed an effect of 50% or more. This is one part of the list.

These compounds were tested against Bcl-2-like protein 10 (Homo sapiens) (UniProt Q9HD36) (assay: TR3 peptide-Bcl-B binding displacers, biochemical primary FP assay, phenotype converters (AID 1240;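 further: 0% = Bcl-B with tracer peptide and DMSO and 100% = tracer peptide lacking Bcl-B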)). Details: GST-Bcl-B / FITC-TR3 peptide fluorescence polarization; stronger effect = higher value; compound at 3.75 mg/L.
Chain of UniProt Q9HD36 (Q9HD36 whole entry, looked up): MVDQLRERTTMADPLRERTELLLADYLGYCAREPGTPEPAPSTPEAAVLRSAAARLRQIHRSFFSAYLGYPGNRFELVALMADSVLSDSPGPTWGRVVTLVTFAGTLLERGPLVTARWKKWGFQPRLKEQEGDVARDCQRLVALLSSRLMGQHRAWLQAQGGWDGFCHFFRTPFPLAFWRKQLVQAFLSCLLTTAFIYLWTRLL

| Structure (SMILES) | displacement |
| --- | --- |
| O=c1oc2ccccc2c2c1C(c1ccccc1)c1c(c3ccccc3oc1=O)O2 | 7.4% |
| CCCCC1C(=O)NC(=S)N(c2ccccc2)C1=O (stereo not drawn) | -4.2% |
| CN1CCN(c2nc3nc(N)[nH]c(=O)c3[nH]2)CC1 | -8.4% |
| CN=C(C)c1c(O)n(C)c(=O)n(C)c1=O | 1.4% |
| Cc1cccc(-n2c(-c3ccc(Cl)cc3Cl)nc3ccccc3c2=O)n1 | -10.9% |
| C=CCOc1ccc(/C=C2\C(=O)NC(=O)N(CC=C)C2=O)cc1OC | 10.9% |
| c1ccc2c(CCNC3CC4CCC3C4)c[nH]c2c1 (stereo not drawn) | 7.4% |
| c1cncc(CN2CCN(C3CC4CCC3C4)CC2)c1 (stereo not drawn) | -3.2% |
| O=[N+]([O-])c1ccc2nc(N3CCNCC3)sc2c1 | 10.1% |
| N#CC1=C(N)Oc2c(c(=O)oc3ccccc23)C1c1cccc([N+](=O)[O-])c1 (stereo not drawn) | 0.9% |
| COc1ccccc1CCN(Cc1ccco1)Cc1ccco1 | -1.6% |
| Cc1cc(C=C2C(=O)NC(=S)NC2=O)c(C)n1-c1ccccc1 | 104% |
| O=C(N1CCN(c2ccccn2)CC1)C(O)(c1ccccc1)c1ccccc1 | 2.1% |
| Cc1ccc(-c2nc3ccccc3c(=O)n2-c2ccccn2)cc1 | -8.7% |
| Cc1ccccc1CN1CCN(Cc2ccc(F)cc2)CC1 | -2.9% |
| CC/C(=C\c1cc(Br)c(O)c(OC)c1)[N+](=O)[O-] | 2.6% |
| CCc1ccc(CNCCc2ccc(OC)c(OC)c2)cc1 | -11.2% |
| Cc1ccc(-n2c(/C=C/c3ccc(O)c(O)c3)nc3ccccc3c2=O)cc1 | 54.7% |
| CCOc1ccc(CNCCc2ccc3c(c2)OCO3)cc1 | -9.1% |
| COc1ccccc1CN1CCN(Cc2ccccc2F)CC1 | -5.2% |

| Structure (SMILES) | displacement |
| --- | --- |
| CCNc1ccc(Br)cc1C(=O)c1ccccc1 | 1.7% |
| O=C1NC(=S)N(c2cccc(Cl)c2)C(=O)/C1=C/c1ccc(Cl)cc1 | 16.4% |
| COc1ccc(CCNCc2cccc([N+](=O)[O-])c2)cc1OC | -9.4% |
| CC(C)Oc1ccccc1C=C1C(=O)NC(=O)NC1=O | 17.1% |
| Cc1ccc(-c2ccc(C=C3C(=O)NC(=S)NC3=O)o2)c(Br)c1 | 13.7% |
| CN(C)S(=O)(=O)c1ccc(C(=O)Nc2ccc(Cl)cc2C(=O)c2ccccc2)cc1 | -24% |
| COc1cc(C)cc2oc(=O)c3c(c12)CCC3 | 9.6% |
| COc1ccc(CCNCc2ccccc2Cl)cc1OC | -5% |
| COc1cc(C)c(CNCCc2ccccc2F)cc1C | -4.7% |
| COC(=O)COc1ccc(/C=C2\C(=O)NC(=S)N(c3ccc(C)cc3)C2=O)cc1OC | -13.5% |
| COc1cc(C)cc2oc(=O)c3c(c12)CCCC3 | -6.4% |
| O=c1c2cc(I)ccc2nc(/C=C/c2cccc([N+](=O)[O-])c2)n1-c1ccccc1 | 10% |
| CCOC(=O)C(C(=O)OCC)c1ccccc1 | -1.9% |
| O=C(Cc1ccccc1)NC(NC(=O)Cc1ccccc1)c1ccc(F)cc1 | -6.9% |
| CC/C(=C/c1ccc(O)c(OC)c1)[N+](=O)[O-] | 3.9% |
| O=c1c2ccccc2nc(/C=C/c2ccc(Cl)cc2)n1-c1cccc(O)c1 | 2.8% |
| CN1CCN(c2nc3ccc([N+](=O)[O-])cc3s2)CC1 | 5% |
| CC1=NN(c2ccccc2)C(=O)C1/C=C1\C(=O)NC(=O)N(c2cccc(C)c2)C1=O (stereo not drawn) | 5.7% |
| CCOC(=O)CNC(=O)CN1CC1C(=O)OCC (stereo not drawn) | -13.6% |
| CC1CN(c2ccc([N+](=O)[O-])c(NCCO)c2)CCN1 (stereo not drawn) | 8.1% |

| Structure (SMILES) | displacement |
| --- | --- |
| CCOc1ccc(CN2CCN(Cc3ccccc3)CC2)cc1 | -3.3% |
| CCc1ccc(CNCCc2ccc3c(c2)OCO3)cc1 | -15.8% |
| CC(C)N1CCN(Cc2ccccc2Br)CC1 | 1.2% |
| COc1ccc(C=C(C#N)C#N)cc1O | 12.3% |
| CCC(=O)N1N=C2C3CCN(CC3)C2C1c1ccc([N+](=O)[O-])cc1 (stereo not drawn) | -2% |
| CCN1CC2([N+](=O)[O-])CC=C(Br)C([N+](=O)[O-])(C1)C2 (stereo not drawn) | -17.4% |
| COc1ccc(-n2c(-c3ccncc3)nc3ccccc3c2=O)cc1 | -9% |
| O=c1oc2ccccc2c(O)c1C(c1cccc(F)c1)c1c(O)c2ccccc2oc1=O | 15% |
| Cc1cc([N+](=O)[O-])c(C)cc1-c1ccc(C=C2C(=O)NC(=O)NC2=O)o1 | 8.4% |
| CCOc1ccc(CNCCc2ccc(OC)c(OC)c2)cc1 | -14.3% |
| CCOP(=S)(OCC)SCn1c(=O)oc2cc(Cl)ccc21 | 15.4% |
| O=C1NC(=O)C(=Cc2ccc(-c3ccccc3C(=O)O)o2)C(=O)N1 | 11.2% |
| O=c1c2ccccc2nc(-c2cccs2)n1-c1ccccc1 | 0.1% |
| COc1ccc(CN2CCN(Cc3ccc(F)cc3)CC2)cc1 | -3.5% |
| N#Cc1c(/N=C/c2c[nH]c3ccccc23)sc2c1CCCC2 | 4.5% |
| Cc1ccc(OCC(=O)N2CCN(C)CC2)c(Br)c1 | 2.9% |
| COc1cc(OC)c(OC)cc1C=C1C(=O)NC(=S)NC1=O | 15.1% |
| CN1C(=O)NC(=O)/C(=C\c2cccc(Oc3ccccc3)c2)C1=O | -15.8% |
